The test system of the first experiment is Huh7 cells that stably maintain a subgenomic HCV replicon (S22.3 cell-line). Kind of experiment: Cell based HCV RNA replication assay (S22.3 replicon cells, real-time RT-PCR). The note with it: Hepatitis C virus, Huh-7, 72 h. The source says: Preparation of Test Compound
Application of Test Compound to Cells
Extraction of Total Cellular RNA
Quantification of Total Cellular RNA
In turn, `O=C(O)c1ccc2c(C3CCCCC3)c(-c3ccoc3)[nH]c2c1` [compound 102] yielded a 50% effective concentration (EC50) above 1000 nM.

With `Cn1c(-c2ccoc2)c(C2CCCCC2)c2ccc(C(=O)O)cc21` [compound 107], the EC50 was above 1000 nM. Same read-out and setting: then `Cn1c(-c2ccoc2)c(C2CCCC2)c2ccc(C(=O)O)cc21` [compound 111], with above 1000 nM. In the case of `Cn1c(-c2cnco2)c(C2CCCC2)c2ccc(C(=O)O)cc21` [compound 128], the EC50 is above 1000 nM. Regarding `Cn1c(-c2ccc(N)cc2)c(C2CCCC2)c2ccc(C(=O)O)cc21` [compound 131], the EC50 is above 1000 nM.

Staying with this experiment, now noted: Hepatitis C virus, Huh-7; Table 1; S22.3 cells, 72 hours incubation, HCV RNA by RT-PCR; read-out: EC50.
For `Cn1c(-c2ccccn2)c(C2CCCCC2)c2ccc(C(=O)O)cc21` [compound 106], the EC50 is above 1000 nM.

Regarding `Cc1ccc(-c2c(C3CCCCC3)c3ccc(C(=O)O)cc3n2C)nc1` [compound 108], the EC50 was below 1000 nM. The same measure, in the same setting: then `Cn1c(-c2cnccn2)c(C2CCCCC2)c2ccc(C(=O)O)cc21` [compound 109], with above 1000 nM; and `Cn1c(-c2cccc(N)n2)c(C2CCCCC2)c2ccc(C(=O)O)cc21` [compound 112], with above 1000 nM; and `Cn1c(-c2ccccn2)c(C2CCCC2)c2ccc(C(=O)O)cc21` [compound 115], with above 1000 nM. Turning to `Cn1c(-c2cscn2)c(C2CCCC2)c2ccc(C(=O)O)cc21` [compound 117], the EC50 was above 1000 nM. Same read-out and setting: then `CC(=O)Nc1nc(-c2c(C3CCCC3)c3ccc(C(=O)O)cc3n2C)cs1` [compound 118], with above 1000 nM.

In the case of `CNc1nc(-c2c(C3CCCC3)c3ccc(C(=O)O)cc3n2C)cs1` [compound 119], the EC50 is above 1000 nM. With `Cc1nc(-c2c(C3CCCC3)c3ccc(C(=O)O)cc3n2C)cs1` [compound 121], the EC50 is above 1000 nM. As for `COCCNc1nc(-c2c(C3CCCC3)c3ccc(C(=O)O)cc3n2C)cs1` [compound 123], the EC50 is above 1000 nM.

Consider `CN(C)CCNc1nc(-c2c(C3CCCC3)c3ccc(C(=O)O)cc3n2C)cs1` [compound 127], for which the half-maximal effective concentration (EC50) was above 1000 nM.

As to `Cn1c(-c2nccs2)c(C2CCCC2)c2ccc(C(=O)O)cc21` [compound 129], the EC50 was above 1000 nM. Still for that read-out and setting: then `Cn1c(-c2ccsc2)c(C2CCCC2)c2ccc(C(=O)O)cc21` [compound 132], with above 1000 nM; and `Cc1cccc(-c2c(C3CCCC3)c3ccc(C(=O)O)cc3n2C)n1` [compound 133], with above 1000 nM; and `Cn1c(-c2cnccn2)c(C2CCCC2)c2ccc(C(=O)O)cc21` [compound 135], with above 1000 nM. With `O=C(O)c1ccc2c(C3CCCC3)c(-c3ccccn3)sc2c1` [compound 138], the EC50 is above 1000 nM.

For the molecule `O=C(O)c1ccc2c(C3CCCC3)c(-c3ccccn3)oc2c1` [compound 141], the EC50 is above 1000 nM. As for `O=C(O)c1ccc2c(C3CCCC3)c(-c3ccccn3)[nH]c2c1` [compound 145], the EC50 is above 1000 nM.

For the origin of these results see patent US7157486B2, “Viral polymerase inhibitors” (Boehringer Ingelheim (Canada) Ltd., priority 2001, dated 2007).
